Reference: publication PMC4336329 (PLoS ONE, 2015)
The campaign covered roughly 310,000 compounds. About 14,000 (4.5%) showed an effect of 50% or more. Effects have a minus sign here. Some of the results follow.

What follows are compounds tested against human ether-à-go-go-related gene (hERG) potassium channel (human, UniProt Q12809) (assay: primary screen, population patch clamp on CHO cells stably expressing hERG).
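Note: peak tail current of the secondary pulse compared with the same well before compound.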

Sequence of human ether-à-go-go-related gene (hERG) potassium channel (Q12809 whole entry, looked up): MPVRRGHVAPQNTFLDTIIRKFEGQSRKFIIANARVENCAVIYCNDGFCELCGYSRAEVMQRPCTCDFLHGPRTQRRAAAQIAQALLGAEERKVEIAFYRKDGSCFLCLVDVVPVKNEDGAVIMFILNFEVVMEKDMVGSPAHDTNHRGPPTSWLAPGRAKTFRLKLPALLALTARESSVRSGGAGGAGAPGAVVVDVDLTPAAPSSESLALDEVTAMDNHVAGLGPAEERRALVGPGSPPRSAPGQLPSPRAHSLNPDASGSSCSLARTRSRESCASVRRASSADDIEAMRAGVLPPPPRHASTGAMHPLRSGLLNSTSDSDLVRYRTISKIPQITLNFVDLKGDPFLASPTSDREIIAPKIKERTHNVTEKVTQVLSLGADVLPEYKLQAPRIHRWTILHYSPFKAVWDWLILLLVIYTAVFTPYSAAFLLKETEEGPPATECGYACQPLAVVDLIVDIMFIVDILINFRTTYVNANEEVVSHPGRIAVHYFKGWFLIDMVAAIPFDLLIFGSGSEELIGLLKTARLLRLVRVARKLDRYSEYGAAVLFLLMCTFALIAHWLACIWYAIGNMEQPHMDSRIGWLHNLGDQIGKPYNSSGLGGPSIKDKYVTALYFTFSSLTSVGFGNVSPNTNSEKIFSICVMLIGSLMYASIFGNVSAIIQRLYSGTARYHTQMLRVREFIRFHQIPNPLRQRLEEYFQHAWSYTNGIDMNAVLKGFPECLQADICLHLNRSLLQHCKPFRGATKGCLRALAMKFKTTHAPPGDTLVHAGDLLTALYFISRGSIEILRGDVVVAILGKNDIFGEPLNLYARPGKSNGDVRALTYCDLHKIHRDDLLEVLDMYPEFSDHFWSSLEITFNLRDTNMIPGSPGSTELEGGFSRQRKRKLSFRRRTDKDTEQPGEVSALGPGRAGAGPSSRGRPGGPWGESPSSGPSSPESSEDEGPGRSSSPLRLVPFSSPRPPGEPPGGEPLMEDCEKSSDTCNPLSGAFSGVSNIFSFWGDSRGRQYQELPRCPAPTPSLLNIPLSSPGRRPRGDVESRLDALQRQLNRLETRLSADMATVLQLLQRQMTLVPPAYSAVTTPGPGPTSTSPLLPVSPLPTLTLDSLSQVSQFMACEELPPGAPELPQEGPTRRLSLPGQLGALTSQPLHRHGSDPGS

Compound | hERG current change (%, negative = inhibition) at 10uM
COC(=O)[C@]1(C)CCC[C@@]2(C)C3CC[C@]4(OC(C)=O)C[C@@]3(CCC21)CC4=NO (stereo partly shown) | -8.17%
CS(=O)(=O)N(CC(=O)Nc1ccccc1C(=O)N1CCCC1)c1ccc2c(c1)OCO2 | 26.3%
NC(=S)NNc1cccc2cccnc12 | 28.8%
CCc1nc(N2CCN(C(C)=O)CC2)c2c3c(sc2n1)CC(C(C)(C)C)CC3 (stereo not shown) | -25.3%
COc1ccc(C(=O)Nc2cccc(C(=O)N3CCN(C)CC3)c2)cc1 | -5.53%
COc1ccccc1NC(=O)CN1CC(=O)Nc2ccccc21 | 20.5%
CCS(=O)(=O)NCCc1csc(C)n1 | 11.2%
Cc1ccc(S(=O)(=O)Nc2ccc(-n3c(C)nc4ccccc4c3=O)cc2)cc1 | -49.4%
CC(=O)Nc1cccc(C(=O)/C=C/c2ccc(N(C)C)cc2)c1 | 3.1%
Cc1cc(N2CCCCCC2)nc(-c2ccccc2O)n1 | 3.03%
CN1C(=O)CC(C(=O)O)SC1=Nc1cc(Cl)cc(Cl)c1 (stereo not shown) | 6.2%
COc1ccccc1CNC(=O)CSc1ccc(Br)cc1 | -3.01%
CN(C)/C=N/c1nc2nccc(-c3ccc(Cl)cc3)n2n1 | 16.4%
COc1ccc(Cl)cc1N(CC(=O)N1CCCCCC1)S(C)(=O)=O | 2.3%
CCOc1ccccc1N(C(=O)Nc1ccc(Cl)cc1)C1=NC(C)CS1 (stereo not shown) | 8.88%
O=C(Nc1ccc2c(c1)OCO2)c1ccc(S(=O)(=O)N2CCCC2)cc1 | 22.1%
COC(=O)CCC(=O)CN.Cl | 13.5%
COc1ccccc1Cc1nc(-c2ccc(Br)o2)no1 | -0.174%
Cc1cc(N)n2ncc(-c3cccc(Br)c3)c2n1 | -2.75%
CC(=O)Nc1c(NC(C)(C)C)c2ccccc2oc1=O | 33.9%
COC(=O)c1ccc(/C=N/NC(=O)CC(=O)NC(C)C)cc1 | 1.63%
Cc1nccc(-c2ccc(-n3c(C)ccc3C)cc2)n1 | -6.29%
O=C(COC(=O)C1=COCCO1)Nc1ccc(Oc2ccccc2)cc1 | -27.7%

Compound | hERG current change (%, negative = inhibition) at 10uM
COC(=O)CSc1nc2ccc(C)cc2[nH]1 | 15.1%
CCOC(=O)C1=C(CN2CCCCCC2)NC(=O)NC1c1ccc2c(c1)OCO2 (stereo not shown) | -48.2%
CCN(CC)CCNCC(=O)Nc1ccc(Oc2ccccc2)cc1 | -70.5%
O=C(CN1CCN(c2ccccc2F)CC1)Nc1ccccc1F | -1.86%
O=C(OCC1CC(c2ccccc2)=NO1)c1ccc(Cl)cc1 (stereo not shown) | 18.6%
O=C(C1=C[C@H](c2ccccc2)C[C@H](OCCCCO)O1)N1CCOCC1 | -6.4%
COC(=O)CNC(c1ccccc1)c1cc(Br)ccc1NS(=O)(=O)c1ccc(C)cc1 (stereo not shown) | 2.43%
Brc1ccc2[nH]ncc2c1 | 2.52%
COc1ccc(N/C=C\C(=O)c2ccc(Br)cc2)cc1OC | 2.41%
CCN1CCN(c2cc(C)c3cc(NC(=O)c4cnccn4)ccc3n2)CC1 | -16.2%
Cc1ccccc1C(NC(N)=O)c1ccccc1 (stereo not shown) | 0.289%
CCC(SCC(=O)OC)C(=O)Nc1nnc(C(C)C)s1 (stereo not shown) | 5.78%
COc1ccccc1CNC(=O)Cn1nc(C)c([N+](=O)[O-])c1C | 16.7%
CC1=C(C)CC(C(=O)NNC(=O)c2csc3c2CCC(C(C)(C)C)C3)C(C(=O)O)C1 (stereo not shown) | 10.9%
COc1ccccc1OCCSc1nnc(CNC(=O)c2ccco2)n1C | 21.8%
CCOc1ccc(NC(=O)c2cc3cc4ccc(C)cc4nc3o2)cc1 | 20.6%
Cc1cc(C)nc(SCCN2CCCCC2)n1 | 10.5%
CC(=O)C1=C(c2ccccc2)NC(=O)NC1c1ccccc1 (stereo not shown) | 10.9%
O=c1c2ccccc2ncn1-c1ccc2c(c1)OCCO2 | -4.29%
Cc1ccc(CC2CC(=O)N(c3ccc(Cl)cn3)C2=O)cc1 (stereo not shown) | -2.53%
COCC(C)NC(=O)c1oc2c(c1C)C1(CCC2)SCCS1 (stereo not shown) | -7.04%
CCC(Sc1ccccc1C(=O)O)C(=O)O (stereo not shown) | 20.8%
CCOC(=O)c1ccc2c(c1)N(C)C(=O)c1ccccc1S2 | 13.5%

Compound | hERG current change (%, negative = inhibition) at 10uM
CCCc1cc(=O)oc2c3c(cc(OCC(=O)NCCN4CCOCC4)c12)OC(C)(C)CC3 | -18.3%
COc1ccccc1C(=O)NCCC(=O)NCc1cccs1 | 1.11%
C/C(=N\NC(=O)c1cccnc1)c1ccc(C)c([N+](=O)[O-])c1 | -7.18%
CCCCn1nnc(NC(=O)c2ccc(-c3ccccc3[N+](=O)[O-])o2)n1 | -14.2%
COCc1nnc(NC(=O)CCC2CCCCC2)s1 | 6.48%
Cc1ccccc1NC(=O)CN1C(=O)S/C(=C/c2cccnc2)C1=O | 14.6%
COc1ccc(CCNC(=O)/C(=C/c2cccnc2)NC(=O)c2ccccc2)cc1OC | -3.35%
Cc1sc(NC(=O)CSc2nnnn2C(C)C)c(C#N)c1C | 7.38%
Cl.NCCCC(N)(C(=O)O)C(F)F (stereo not shown) | 15.6%
FC(F)c1nnc2ccc(Cl)nn12 | 48.9%
COc1cccc(C(=O)Nc2ccccc2F)c1 | 8.37%
O=c1c(NCCc2ccccc2)c(-c2ccccc2)c1=O | 26%
CCN(CC)S(=O)(=O)c1ccc2oc(C(=O)O)c(C)c2c1 | -0.769%
O=C(COc1ccc(Cl)cc1)NCc1nnc(SCC(=O)N2CCCC2)o1 | -3.79%
CC(=O)Nc1ccc(C(=O)CN2C(=O)CSC2=O)cc1 | 1.3%
CN(CC(=O)Nc1ccc(Cl)c(C(F)(F)F)c1)C(=O)/C=C/c1cccs1 | 10.6%
CC1CCCCC1NC(=O)/C=C/c1nc2ccccc2s1 (stereo not shown) | -3.45%
CC(=O)c1ccc(NC(=O)CCn2c(=S)oc3ccccc32)cc1 | 12.7%
CCOC(=O)c1c(C)n(C)c2ccc(O)c(CN(C)C)c12.O=C(O)C(=O)O | -6.82%
COc1ccc2c(-c3ccccc3)cc(SCC(=O)N(C)C)nc2c1 | -22.9%
CC(=O)c1nn(-c2ccc(Cl)cc2)c(=O)[nH]c1=O | -30.7%
CCOc1ccc(S(=O)(=O)n2c([N+](=O)[O-])cnc2C)c(C)c1C.O=C(O)C(=O)O | -8.84%
COc1ccc(-c2nc3c(c(=O)[nH]c(=O)n3Cc3ccccc3)n2Cc2ccccc2)cc1 | -29.7%

Compound | hERG current change (%, negative = inhibition) at 10uM
CCC(C)NCCOCCOc1ccc(F)cc1.O=C(O)C(=O)O (stereo not shown) | -9.21%
CCc1ccc(-c2cc(C)no2)cc1S(=O)(=O)Nc1cc(C)ccn1 | 21.7%
O=c1c2ccccc2nc2n1-c1ccccc1CCC2 | -0.695%
CCCCNC(=O)Cn1cnc2sc(C)c(S(=O)(=O)N3CCN(c4ncccn4)CC3)c2c1=O | 6.18%
O=C(NCc1ccccc1)C1=C[C@H](c2ccc3c(c2)OCO3)C[C@H](OCCCCO)O1 | -27.6%
Cc1ccc(S(=O)(=O)NC(CC(=O)n2nc(C)cc2C)c2ccccc2)cc1 (stereo not shown) | -0.931%
O=C(CO/N=C/c1ccccc1OC(F)F)NC1CCCCC1 | -19.5%
CC(=O)N1c2ccc(S(=O)(=O)N3CCC(C(=O)Nc4cccc(Cl)c4)CC3)cc2CC1C (stereo not shown) | 15.1%
CCCOC(=O)COc1cc(C)cc2oc(=O)c3c(c12)CCC3 | 6.32%
O=C(CCNS(=O)(=O)c1ccccc1C(F)(F)F)N1CCN(S(=O)(=O)c2cccc(Cl)c2)CC1 | -7.8%
Cc1ccc(-c2noc(CCC(=O)NCCCN3CCN(c4cccc(Cl)c4)CC3)n2)cc1 | 2.45%
O=C(Cc1ccc(F)cc1)N/N=C/c1ccc(-c2ccc(Cl)c(C(=O)O)c2)o1 | 29.7%
O=C(CCN1CCN(C/C=C/c2ccccc2)CC1)Nc1ccccc1 | -74.9%
COCCN=C1OC(=O)N2C(=O)C3=C4[C@@H](C[C@H]5C(=O)N(c6ccccc6)C(=O)[C@H]5[C@H]4[C@@]12Cc1ccccc1)[C@H]1C(=O)N(c2ccccc2)C(=O)[C@H]1[C@H]3C | 6.81%
Cn1cccc1C(=O)C(=O)Nc1ccc(F)c(F)c1 | 15.9%
Cc1ccc(C(=O)N2CC(=O)Nc3ccc(F)cc3C2c2ccccc2)cc1 (stereo not shown) | -4.56%
COc1ccccc1NS(=O)(=O)c1cccc(NC(=S)NCCN2CCOCC2)c1 | -7.65%
COC(=O)C(CCSC)NC(=O)c1cc2c(n(-c3ccc(C)cc3)c1=O)CCCC2=O (stereo not shown) | 1.53%
CC(=O)Nc1ccc2c(c1)C(=O)N(c1ccc(C)cc1)C2=O | 0.928%
Cc1cc(OCC(=O)NNC(=S)NC(=O)c2cccs2)ccc1Cl | 15%
Cc1c(Cl)c(C(=O)NNC(=S)NCc2ccco2)nn1C | -1.46%
CCc1nnc(NC(=O)CSc2nc(C)cs2)s1 | 25%
